The supplement of paper PMC10369915
The other results are listed elsewhere or left out. Cut-off read from the data, not from the text of the source: active = 3.2 or more and inactive = the rest. Most of these values are background signal.

Experiments:
Assay in all cases: enrichment score (SH2-bound / input frequency) (ratio); bacterial display of known human phosphotyrosine sites (pTyr-Var adds point mutants) read by sequencing; higher = stronger binding; tyrosines were phosphorylated by kinases first
Details in all cases: peptide library: pTyr-Var
[1] = molecular target: SHP2 C-SH2 domain E139D
[2] = molecular target: SHP2 C-SH2 domain wild-type
[3] = molecular target: SHP2 N-SH2 domain L43F
[4] = molecular target: SHP2 N-SH2 domain T42A
[5] = molecular target: SHP2 N-SH2 domain T52S
[6] = molecular target: SHP2 N-SH2 domain wild-type
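Note: displayed peptides selected on beads carrying the immobilized SH2 domain, with library peptides lacking any tyrosine serving as negative controls.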

## DYSLKYPTDIP [APC_Y1183_A1184P]
[1]
  enrichment score: inactive: 0.898
[2]
  enrichment score: inactive: 1.04
[3]
  enrichment score: inactive: 0.834
[4]
  enrichment score: inactive: 0.819
[5]
  enrichment score: inactive: 0.911
[6]
  enrichment score: inactive: 0.936

## RHSGSYLVTSV [APC_Y2838]
[1]
  enrichment score: inactive: 1.26
[2]
  enrichment score: inactive: 1.04
[3]
  enrichment score: inactive: 0.941
[4]
  enrichment score: inactive: 0.951
[5]
  enrichment score: inactive: 1.15
[6]
  enrichment score: inactive: 1.04

## RHSGSYFVTSV [APC_Y2838_L2839F]
[1]
  enrichment score: inactive: 0.994
[2]
  enrichment score: inactive: 0.872
[3]
  enrichment score: inactive: 0.824
[4]
  enrichment score: inactive: 0.809
[5]
  enrichment score: inactive: 0.756
[6]
  enrichment score: inactive: 0.879

## KVKPIYFHTRG [AR_Y916_Q920R]
[1]
  enrichment score: active: 4.43
[2]
  enrichment score: active: 3.69
[3]
  enrichment score: active: 4.02
[4]
  enrichment score: active: 3.85
[5]
  enrichment score: active: 3.93
[6]
  enrichment score: active: 3.75

## VDHFGYNKDDK [APOB_Y740_T741N]
[1]
  enrichment score: inactive: 0.724
[2]
  enrichment score: inactive: 0.574
[3]
  enrichment score: inactive: 0.746
[4]
  enrichment score: inactive: 0.674
[5]
  enrichment score: inactive: 0.502
[6]
  enrichment score: inactive: 0.828

## VIKDKYPQARY [APTX_Y209_K211Q]
[1]
  enrichment score: inactive: 0.841
[2]
  enrichment score: inactive: 0.944
[3]
  enrichment score: inactive: 0.664
[4]
  enrichment score: inactive: 0.627
[5]
  enrichment score: inactive: 0.852
[6]
  enrichment score: inactive: 0.885

## ENSLDYGSAWA [AR_Y395_P392S]
[1]
  enrichment score: inactive: 0.69
[2]
  enrichment score: inactive: 0.516
[3]
  enrichment score: inactive: 0.655
[4]
  enrichment score: inactive: 0.478
[5]
  enrichment score: inactive: 0.624
[6]
  enrichment score: inactive: 0.697

## VIKDKYPKAHY [APTX_Y209_R213H]
[1]
  enrichment score: inactive: 1.14
[2]
  enrichment score: inactive: 1.22
[3]
  enrichment score: inactive: 1.15
[4]
  enrichment score: inactive: 1.04
[5]
  enrichment score: inactive: 1.19
[6]
  enrichment score: inactive: 1.11

## EFKKHYGYSLY [ANXA3_Y295]
[1]
  enrichment score: active: 3.65
[2]
  enrichment score: active: 3.35
[3]
  enrichment score: inactive: 3.01
[4]
  enrichment score: inactive: 2.25
[5]
  enrichment score: inactive: 2.47
[6]
  enrichment score: inactive: 2.81

## RGDCMYAPLLG [AR_Y269]
[1]
  enrichment score: inactive: 1.07
[2]
  enrichment score: inactive: 0.923
[3]
  enrichment score: inactive: 1.02
[4]
  enrichment score: inactive: 0.902
[5]
  enrichment score: inactive: 0.997
[6]
  enrichment score: inactive: 0.938

## ENPLDYGSAWA [AR_Y395]
[1]
  enrichment score: inactive: 0.705
[2]
  enrichment score: inactive: 0.809
[3]
  enrichment score: inactive: 0.875
[4]
  enrichment score: inactive: 0.795
[5]
  enrichment score: inactive: 0.938
[6]
  enrichment score: inactive: 0.804

## ETKEDYEKILV [ANXA1_Y335_G333E]
[1]
  enrichment score: inactive: 0.577
[2]
  enrichment score: inactive: 0.971
[3]
  enrichment score: inactive: 0.677
[4]
  enrichment score: inactive: 0.582
[5]
  enrichment score: inactive: 0.573
[6]
  enrichment score: inactive: 0.738

## FPKARYRWLVL [APTX_Y214_H215R_YF]
[1]
  enrichment score: inactive: 0.448
[2]
  enrichment score: inactive: 0.484
[3]
  enrichment score: inactive: 0.452
[4]
  enrichment score: inactive: 0.391
[5]
  enrichment score: inactive: 0.467
[6]
  enrichment score: inactive: 0.414

## GEDEPYSEPYA [APBA1_Y183]
[1]
  enrichment score: inactive: 0.513
[2]
  enrichment score: inactive: 0.426
[3]
  enrichment score: inactive: 0.399
[4]
  enrichment score: inactive: 0.459
[5]
  enrichment score: inactive: 0.311
[6]
  enrichment score: inactive: 0.501

## PYAEPYADYGG [APBA1_Y187_S184A]
[1]
  enrichment score: inactive: 0.761
[2]
  enrichment score: inactive: 0.581
[3]
  enrichment score: inactive: 0.679
[4]
  enrichment score: inactive: 0.644
[5]
  enrichment score: inactive: 0.657
[6]
  enrichment score: inactive: 0.719

## DSGRDYVSQFE [APOA1_Y53]
[1]
  enrichment score: inactive: 0.55
[2]
  enrichment score: inactive: 0.577
[3]
  enrichment score: inactive: 0.515
[4]
  enrichment score: inactive: 0.599
[5]
  enrichment score: inactive: 0.577
[6]
  enrichment score: inactive: 0.62

## VIKDKYPQARF [APTX_Y209_K211Q_YF]
[1]
  enrichment score: inactive: 0.867
[2]
  enrichment score: inactive: 0.709
[3]
  enrichment score: inactive: 0.899
[4]
  enrichment score: inactive: 0.754
[5]
  enrichment score: inactive: 0.673
[6]
  enrichment score: inactive: 0.912

## LGNFNYEQRGA [API5_Y497]
[1]
  enrichment score: inactive: 0.668
[2]
  enrichment score: inactive: 0.527
[3]
  enrichment score: inactive: 0.545
[4]
  enrichment score: inactive: 0.49
[5]
  enrichment score: inactive: 0.518
[6]
  enrichment score: inactive: 0.612

## LSNFNYEQRGA [API5_Y497_G493S]
[1]
  enrichment score: inactive: 0.753
[2]
  enrichment score: inactive: 0.575
[3]
  enrichment score: inactive: 0.554
[4]
  enrichment score: inactive: 0.674
[5]
  enrichment score: inactive: 0.497
[6]
  enrichment score: inactive: 0.546

## SYNNKYGMVAQ [APOB_Y276_K273N]
[1]
  enrichment score: inactive: 0.775
[2]
  enrichment score: inactive: 0.69
[3]
  enrichment score: inactive: 0.696
[4]
  enrichment score: inactive: 0.456
[5]
  enrichment score: inactive: 0.626
[6]
  enrichment score: inactive: 0.537

## FPQARYHWLVL [APTX_Y214_K211Q_YF]
[1]
  enrichment score: inactive: 2.89
[2]
  enrichment score: inactive: 2.74
[3]
  enrichment score: inactive: 2.65
[4]
  enrichment score: inactive: 2.47
[5]
  enrichment score: inactive: 2.77
[6]
  enrichment score: inactive: 2.96

## EIVHRYVELLD [AP1S3_Y87]
[1]
  enrichment score: inactive: 1.26
[2]
  enrichment score: inactive: 1.28
[3]
  enrichment score: inactive: 2.34
[4]
  enrichment score: active: 4.5
[5]
  enrichment score: inactive: 2.35
[6]
  enrichment score: inactive: 1.21

## IKSSIYDNRKE [ARAP2_Y380]
[1]
  enrichment score: inactive: 0.743
[2]
  enrichment score: inactive: 0.863
[3]
  enrichment score: inactive: 0.794
[4]
  enrichment score: inactive: 0.957
[5]
  enrichment score: inactive: 0.629
[6]
  enrichment score: inactive: 0.73

## GEDEPYAEPYA [APBA1_Y183_S184A]
[1]
  enrichment score: inactive: 0.651
[2]
  enrichment score: inactive: 0.489
[3]
  enrichment score: inactive: 0.312
[4]
  enrichment score: inactive: 0.497
[5]
  enrichment score: inactive: 0.372
[6]
  enrichment score: inactive: 0.695

## ETVHRYVELLD [AP1S3_Y87_I83T]
[1]
  enrichment score: inactive: 0.93
[2]
  enrichment score: inactive: 1.57
[3]
  enrichment score: inactive: 2.13
[4]
  enrichment score: active: 4.38
[5]
  enrichment score: inactive: 2.3
[6]
  enrichment score: inactive: 0.967

## RGDCMYASLLG [AR_Y269_P271S]
[1]
  enrichment score: inactive: 1.3
[2]
  enrichment score: inactive: 1.73
[3]
  enrichment score: inactive: 0.931
[4]
  enrichment score: inactive: 1.37
[5]
  enrichment score: inactive: 1.07
[6]
  enrichment score: inactive: 1.12

## THLAPYSDELR [APOA1_Y190]
[1]
  enrichment score: inactive: 0.617
[2]
  enrichment score: inactive: 0.59
[3]
  enrichment score: inactive: 0.819
[4]
  enrichment score: inactive: 0.675
[5]
  enrichment score: inactive: 0.672
[6]
  enrichment score: inactive: 0.874

## VDASFYGGRGV [ANTXR2_Y381_YF]
[1]
  enrichment score: inactive: 0.926
[2]
  enrichment score: inactive: 0.805
[3]
  enrichment score: inactive: 0.788
[4]
  enrichment score: inactive: 0.976
[5]
  enrichment score: inactive: 0.638
[6]
  enrichment score: inactive: 0.846

## CSRRLYQLTKL [AR_Y858_F857L]
[1]
  enrichment score: inactive: 0.451
[2]
  enrichment score: inactive: 0.315
[3]
  enrichment score: inactive: 0.313
[4]
  enrichment score: inactive: 0.382
[5]
  enrichment score: inactive: 0.358
[6]
  enrichment score: inactive: 0.34

## WASGIYFVPKG [APBB1IP_Y340_R335W_YF]
[1]
  enrichment score: inactive: 2.19
[2]
  enrichment score: inactive: 1.88
[3]
  enrichment score: inactive: 1.76
[4]
  enrichment score: inactive: 1.89
[5]
  enrichment score: inactive: 2.15
[6]
  enrichment score: inactive: 2.18

## MSLRSYGSREG [APC_Y96]
[1]
  enrichment score: inactive: 0.556
[2]
  enrichment score: inactive: 0.536
[3]
  enrichment score: inactive: 0.467
[4]
  enrichment score: inactive: 0.463
[5]
  enrichment score: inactive: 0.468
[6]
  enrichment score: inactive: 0.465

## RASGIYYVPKG [APBB1IP_Y340]
[1]
  enrichment score: inactive: 0.974
[2]
  enrichment score: inactive: 0.96
[3]
  enrichment score: inactive: 0.889
[4]
  enrichment score: inactive: 0.918
[5]
  enrichment score: inactive: 0.659
[6]
  enrichment score: inactive: 0.631

## CRVEPYGENFN [APOA4_Y310_R305C]
[1]
  enrichment score: inactive: 0.863
[2]
  enrichment score: inactive: 1.04
[3]
  enrichment score: inactive: 0.735
[4]
  enrichment score: inactive: 0.547
[5]
  enrichment score: inactive: 0.922
[6]
  enrichment score: inactive: 1.36

## PYSEPYADYGG [APBA1_Y187]
[1]
  enrichment score: inactive: 0.777
[2]
  enrichment score: inactive: 0.433
[3]
  enrichment score: inactive: 0.592
[4]
  enrichment score: inactive: 0.537
[5]
  enrichment score: inactive: 0.399
[6]
  enrichment score: inactive: 0.379

## CSRHFYQLTKL [AR_Y858_R856H]
[1]
  enrichment score: inactive: 1.37
[2]
  enrichment score: inactive: 1.31
[3]
  enrichment score: inactive: 1.34
[4]
  enrichment score: inactive: 1.22
[5]
  enrichment score: inactive: 1.33
[6]
  enrichment score: inactive: 1.32

## THLARYSDELR [APOA1_Y190_P189R]
[1]
  enrichment score: inactive: 0.611
[2]
  enrichment score: inactive: 0.721
[3]
  enrichment score: inactive: 0.734
[4]
  enrichment score: inactive: 0.585
[5]
  enrichment score: inactive: 0.799
[6]
  enrichment score: inactive: 0.689

## DFSLKYPTDIP [APC_Y1183_A1184P_YF]
[1]
  enrichment score: inactive: 1.07
[2]
  enrichment score: inactive: 0.835
[3]
  enrichment score: inactive: 1.03
[4]
  enrichment score: inactive: 0.924
[5]
  enrichment score: inactive: 1.08
[6]
  enrichment score: inactive: 1.05
